Some of the results follow. The full chains were built here from the parent and the listed change. Inactive controls read about 0.05.
B1: TEV protease; numbered along this chain (parent)
chain: MGESLFKGPRDYNPISSSICHLTNESDGHTTSLYGIGFGPFIITNKHLFRRNNGTLVVQSLHGVFKVKDTTTLQQHLVDGRDMIIIRMPKDFPPFPQKLKFREPQREERICLVTTNFQTKSMSSMVSDTSCTFPSGDGIFWKHWIQTKDGQCGSPLVSTRDGFIVGIHSASNFTNTNNYFTSVPKNFMELLTNQEAQQWVSGWRLNADSVLWGGHKVFMVKPEEPFQPVKEATQL

Variants of: B1
Experiment: raw area under fraction-flipped curve 0-4 h after induction (AUC4h, not background-subtracted), DNA-recorder readout of cleavage of the substrate (dimensionless); higher = more cleavage of the substrate by the protease variant
Conditions: temperature: 34 °C; time window: 0-4 h after rhamnose induction
Experimental: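 In vivo DNA recorder in E. coli TOP10(DE3) ΔrhaA at 34 °C. Each TEVp single-site mutant (parent TEVp 0) is paired with a single-site variant of the 7-mer TEVs (canonical ENLYFQ|S). The substrate sits between flexible linkers in a Bxb1-sfGFP-TEVs-SsrA fusion, so cleavage stabilises Bxb1 and speeds flipping of a recombination array, read by NGS. The value is the raw area under the fraction-flipped curve over 0-4 h after rhamnose induction (AUC4h), with ≥20 reads per time point. It is not background-subtracted; inactive controls average about 0.047.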
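Further: Bxb1 expression induced with 0.2% (w/v) L-rhamnose at OD600 near 0.5, cultures sampled hourly, flipped fraction per protease–substrate barcode pair counted by paired-end Illumina sequencing.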

Variant	area with substrate ECLYFQS	area with substrate EHLYFQS	area with substrate EILYFQS	area with substrate EPLYFQS	area with substrate EQLYFQS	area with substrate ESLYFQS	area with substrate EYLYFQS	area with substrate EFLYFQS	area with substrate EMLYFQS	area with substrate ERLYFQS	area with substrate EWLYFQS	area with substrate EDLYFQS	area with substrate EELYFQS	area with substrate EKLYFQS	area with substrate ELLYFQS	area with substrate ETLYFQS	area with substrate EGLYFQS	area with substrate EVLYFQS
Q234H	0.103	0.131	0.0285	0.133	0.111	0.127	0.113	–	–	–	–	–	–	–	–	–	–	–
L205E	0.0813	0.0874	0.0553	–	–	0.078	–	0.0745	0.0944	0.0642	0.0742	–	–	–	–	–	–	–
P40E	–	–	0.138	–	–	0.122	–	–	0.129	0.153	0.153	0.13	0.134	0.132	0.0949	0.158	–	–
F187H	0.0661	0.0659	0.0583	–	–	0.0657	0.0692	0.0489	0.0626	0.0557	0.0577	–	0.0765	0.0722	0.0728	0.0587	0.0628	0.0732
V113A	0.0797	–	0.0914	0.092	0.0952	0.0892	0.135	0.0949	–	0.0707	–	0.0802	0.107	0.103	0.0846	0.0704	0.0981	0.074
S130N	0.076	–	0.0799	0.13	0.115	0.094	–	0.102	0.131	0.102	–	–	–	0.0954	–	–	0.0994	0.0904
Q194P	0.0898	–	0.0967	–	0.106	0.064	–	–	0.146	0.104	–	0.162	0.138	0.123	–	–	–	0.118
E108S	0.122	–	0.0618	–	–	0.079	0.0681	0.0701	–	0.0664	0.0737	0.0722	–	–	0.0606	–	–	0.062
E108V	0.1	0.067	0.0592	0.0675	0.0693	0.0647	0.0635	–	0.0621	0.0577	–	0.069	0.0696	0.063	0.0581	–	0.0616	0.0528
E108I	0.0636	–	0.0708	0.0707	0.0797	0.0922	0.0541	–	0.0583	0.0593	–	0.0742	0.0919	0.0625	0.0423	–	0.0557	–
F163L	0.0958	0.084	0.0912	0.12	0.111	–	–	–	–	0.108	–	–	0.137	0.103	–	–	–	0.0733
A207V	0.106	0.125	0.0966	–	–	0.105	0.128	0.0967	0.108	0.108	–	–	–	0.0844	0.0957	0.126	0.126	0.0899
S124M	0.106	–	0.0847	0.118	–	0.101	0.0872	–	0.116	–	–	0.13	0.122	0.11	0.113	–	–	0.109
W212F	0.131	–	0.112	–	0.13	0.103	0.142	0.0972	0.128	0.122	–	0.155	0.101	0.169	–	–	0.104	0.109
S127H	0.104	0.12	0.0645	0.113	0.125	0.114	0.15	–	–	0.0851	–	0.142	0.123	0.1	0.0969	0.104	0.0995	0.115
G136M	0.0932	0.105	0.137	–	0.158	0.105	0.0787	–	0.105	–	0.0895	0.138	–	0.169	–	0.116	–	0.114
T132R	0.0547	–	–	0.0449	–	0.0286	–	–	0.0504	0.0496	0.0652	–	0.0371	–	–	–	–	–
T181A	0.123	0.148	0.122	0.15	0.141	0.115	–	–	0.13	0.13	0.157	0.136	–	0.124	–	0.121	0.111	–
T181Y	0.0642	0.0791	0.045	0.0603	0.102	0.0529	–	0.0714	–	0.0517	0.0701	–	0.0529	0.0457	–	0.044	0.0588	0.0509
Y34G	–	–	0.0984	–	–	–	0.0852	0.111	0.085	0.0864	0.0788	0.139	–	–	–	–	–	–
L156M	0.0831	–	0.0964	0.105	0.122	0.1	0.1	–	0.091	0.0912	–	0.114	0.0929	–	0.093	–	0.102	0.125
Y179L	0.051	–	0.0566	–	0.0597	0.0565	–	0.0527	–	0.0472	–	–	–	0.0728	0.0585	–	0.0625	0.0442
D161T	0.0795	–	0.0744	0.0865	0.104	0.0797	0.0812	–	0.0916	–	0.0579	0.104	0.0857	–	0.0799	–	0.0954	0.0047
E107M	0.101	–	0.0772	0.103	0.122	0.0923	0.0987	–	0.0688	0.0604	–	0.0798	0.0938	0.126	0.0749	0.122	–	0.0755
E107N	0.0871	–	0.105	–	0.111	0.113	0.108	0.107	0.0897	0.0919	0.114	0.152	0.134	0.0748	–	0.118	–	–
W199D	0.0634	0.0644	0.0629	–	0.0691	0.0612	–	–	0.0826	0.0569	0.0656	0.0679	–	0.0707	–	0.0643	–	0.0692
S135Y	0.0759	0.0528	0.0509	0.0588	0.0731	0.0674	–	–	0.0573	0.0683	–	0.0757	0.104	0.0729	–	–	0.0545	0.0515
C111I	0.0957	–	0.0784	0.109	0.123	0.0738	–	–	0.107	–	0.0934	0.142	0.128	0.102	0.091	0.106	0.0839	–
T114Q	0.123	0.112	–	–	0.134	0.096	0.111	0.154	–	0.128	0.102	0.124	–	0.131	0.101	–	–	0.138
